Data taken from paper PMC4336329 (PLoS ONE, 2015).
The campaign covered roughly 310,000 compounds. About 14,000 (4.5%) showed an effect of 50% or more. The effect is printed as a negative number. The list shows a part of the results.

These compounds were tested against human ether-à-go-go-related gene (hERG) potassium channel (human, UniProt Q12809) (assay: primary screen, population patch clamp on CHO cells stably expressing hERG).
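Also: peak tail current of the secondary pulse compared with the same well before compound.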

human ether-à-go-go-related gene (hERG) potassium channel, sequence (Q12809 whole entry, looked up): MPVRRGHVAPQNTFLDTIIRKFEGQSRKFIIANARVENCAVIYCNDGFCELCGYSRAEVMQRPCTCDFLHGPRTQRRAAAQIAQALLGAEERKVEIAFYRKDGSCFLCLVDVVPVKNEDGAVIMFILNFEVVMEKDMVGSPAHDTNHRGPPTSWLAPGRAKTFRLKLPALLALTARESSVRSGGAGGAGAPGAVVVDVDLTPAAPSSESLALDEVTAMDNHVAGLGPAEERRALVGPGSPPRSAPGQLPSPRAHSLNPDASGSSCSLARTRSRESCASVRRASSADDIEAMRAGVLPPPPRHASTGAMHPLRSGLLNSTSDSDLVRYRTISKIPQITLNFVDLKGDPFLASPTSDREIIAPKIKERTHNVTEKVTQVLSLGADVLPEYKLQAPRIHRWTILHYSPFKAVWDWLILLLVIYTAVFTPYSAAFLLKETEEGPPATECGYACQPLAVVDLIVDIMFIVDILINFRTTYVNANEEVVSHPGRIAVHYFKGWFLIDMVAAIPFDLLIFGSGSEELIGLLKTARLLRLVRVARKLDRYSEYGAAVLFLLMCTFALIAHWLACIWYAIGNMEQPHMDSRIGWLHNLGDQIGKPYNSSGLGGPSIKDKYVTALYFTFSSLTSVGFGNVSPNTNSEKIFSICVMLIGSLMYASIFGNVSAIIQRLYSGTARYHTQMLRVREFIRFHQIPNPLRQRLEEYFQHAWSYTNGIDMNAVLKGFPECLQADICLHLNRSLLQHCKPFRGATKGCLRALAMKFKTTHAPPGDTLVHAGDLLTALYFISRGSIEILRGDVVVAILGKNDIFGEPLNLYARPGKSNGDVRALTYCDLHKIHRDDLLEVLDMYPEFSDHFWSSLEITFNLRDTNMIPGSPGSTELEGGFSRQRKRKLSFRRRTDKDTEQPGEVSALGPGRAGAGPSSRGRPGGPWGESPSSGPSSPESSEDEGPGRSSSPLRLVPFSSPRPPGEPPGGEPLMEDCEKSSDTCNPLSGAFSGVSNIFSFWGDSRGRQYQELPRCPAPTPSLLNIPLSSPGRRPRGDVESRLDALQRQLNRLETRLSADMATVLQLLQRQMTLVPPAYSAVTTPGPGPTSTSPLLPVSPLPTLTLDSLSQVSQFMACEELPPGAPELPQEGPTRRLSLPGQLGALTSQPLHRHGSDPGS

Row | SMILES | hERG current change (%, negative = inhibition) at 10uM
1 | COc1cccc(C(=O)Nc2cc(NC(=O)c3cccs3)ccc2C)c1OC | -14%
2 | CC(C)C(OC(=O)CCC(=O)Nc1nccs1)C(=O)NC1CCCCC1 (centres unmarked) | 12.3%
3 | CCCCCC1CCC(C(=O)NCCN2CCOCC2)CC1 (centres unmarked) | 6.86%
4 | CCCCCn1c(CN2CCN(CCO)CC2)nc2c1c(=O)n(C)c(=O)n2C | -17.9%
5 | COc1ccc2nc(SCC(=O)NC3(C#N)CCCCC3)[nH]c2c1 | 5.77%
6 | COc1ccc(S(=O)(=O)N2Cc3ccccc3CC2C(=O)Nc2nccs2)cc1 (centres unmarked) | -20.7%
7 | CCOC(=O)N1CCN(C(=O)CS(=O)Cc2nc(-c3ccc(C)cc3)oc2C)CC1 (centres unmarked) | 0.278%
8 | Cl.O=C(CCN1CCC(c2ccccc2)C1)c1cccs1 (centres unmarked) | -33.8%
9 | CN(C)c1ccc([N+](=O)[O-])cc1C(=O)NCC(c1ccco1)N(C)C (centres unmarked) | 5.26%
10 | Cc1ccc(C(=O)N/N=C/c2cccc3ccccc23)cn1 | -12%
11 | CC1CCN(c2nncc3ccccc23)CC1 | -5.35%
12 | O=C1CN(C(=O)c2ccccc2F)C(c2ccccc2)c2cc(Cl)ccc2N1 (centres unmarked) | -36.5%
13 | CCOc1ccccc1NC(=O)C1CCN(C(=O)C2CC(=O)N(c3ccc(C)cc3)C2)CC1 (centres unmarked) | -13.2%
14 | COc1ccc(CNc2cc(C)ccn2)cc1 | 2.79%
15 | CC(/C=C/c1ccc2c(c1)OCO2)=N/NC(=O)c1cccnc1 | 2.82%
16 | Cc1nc2ccccc2c(=O)n1NC(=O)c1ccccc1[N+](=O)[O-] | 6.04%
17 | O=C(Cc1ccccc1)Nc1cc(Cl)ccc1Sc1ccccc1 | 6.6%
18 | O=C(CSc1ccccc1C(=O)O)NCc1ccco1 | 12.8%
19 | O=C(Nc1ccccc1C(F)(F)F)N1CCN(c2ccccn2)CC1 | 9.98%
20 | Cc1ccc(CNC(=O)[C@H](C)N2C(=O)N3CCc4c([nH]c5ccccc45)[C@@]3(C)C2=O)cc1 | 11.5%
21 | Cn1cc(S(=O)(=O)N2CCN(C(=O)c3ccco3)CC2)c(=O)n(C)c1=O | -6.81%
22 | COc1cccc(-n2c(SCC(=O)NCc3cccs3)nc3ccccc3c2=O)c1 | -2.74%

Row | SMILES | hERG current change (%, negative = inhibition) at 10uM
23 | CCC12CN3CC(CC)(CN(C1)C31C(=O)N(C)c3ccc(C)cc31)C2=O (centres unmarked) | 19.4%
24 | Cc1ccccc1-c1nc(C#N)c(N2CCC(C)CC2)o1 | 14.4%
25 | O=C(O)c1ccc2ncsc2c1 | 9.83%
26 | COc1ccc(NC2c3ccccc3C(=O)N2c2ccccn2)cc1Cl (centres unmarked) | -5.24%
27 | CCS(=O)(=O)Nc1ccc(C2=NN(C(=O)c3ccco3)C(c3ccco3)C2)cc1 (centres unmarked) | -7.66%
28 | COc1ccc2nc(N3CCCCC3)c(C#N)cc2c1 | 30%
29 | COc1ccc(C(c2c(O)c3ccccc3oc2=O)c2c(C)n(C)n(-c3ccccc3)c2=O)cc1 (centres unmarked) | 4.91%
30 | Cc1ccc(/C=N/n2c(-c3ccco3)n[nH]c2=S)s1 | 14.1%
31 | O=C1NC(=S)N(c2ccc(F)cc2)C(=O)/C1=C/c1ccccc1O | 8.34%
32 | CCN1C(=O)c2ccccc2S(=O)c2ccc(C(=O)N3CCOCC3)cc21 (centres unmarked) | 10.3%
33 | O=C(CN1CCCCC1)N1CCN(S(=O)(=O)c2ccccc2)C1 | 7.89%
34 | O=C(COC(=O)c1ccc(Cl)nc1)NC(=O)c1ccccc1 | 2.33%
35 | CCOc1ccc(CN2CCC(C(=O)N3CCN(c4ccccc4F)CC3)CC2)cc1OC.O=C(O)C(=O)O | -64.8%
36 | Clc1ccc(Cc2nn3c(Cn4nnc5ccccc54)nnc3s2)cc1 | -10.7%
37 | O=C(NCc1cccnc1)c1cn(-c2ccccc2)nc1-c1cccs1 | -32%
38 | O=C(c1cccnc1)N1CCN(S(=O)(=O)c2cccs2)CC1 | -35%
39 | O=C(/C=C/c1ccncc1)c1ccc(NC(=O)c2ccccc2F)cc1 | -5.64%
40 | NC(=O)Cc1ccc(Nc2nnc(-c3ccccc3)c3ccccc23)cc1 | 1.35%
41 | O=C(CN1C(=O)NC2(CCCC2)C1=O)Nc1cc(Cl)ccc1N1CCOCC1 | 0.45%
42 | COc1ccc(/C=N/N2CCN(c3ccc(Cl)cc3)CC2)cc1O | 4.74%
43 | Cc1noc(C)c1C(=O)Nc1ccc(N(C)C)cc1 | 18.8%
44 | O=C(NCCCN=C1NS(=O)(=O)c2ccccc21)c1ccco1 | -10%

Row | SMILES | hERG current change (%, negative = inhibition) at 10uM
45 | COc1ccc(C(C)(C)C)cc1NC(=O)Nc1ccc2c(c1)OCO2 | 16.8%
46 | N#Cc1ccc(OCC(O)CS(=O)(=O)c2ccc(F)cc2)cc1 (centres unmarked) | -20.7%
47 | NS(=O)(=O)c1ccc(CCNC(=O)C2(S(=O)(=O)c3ccc(Cl)cc3)CC2)cc1 | 11.8%
48 | Cc1oc2cc(O)cc(O)c2c(=O)c1-c1ccc2c(c1)OCCCO2 | 3.88%
49 | [O-][n+]1c2ccccc2[n+]([O-])c2cc(O)ccc21 | 6.19%
50 | COC(=O)C1CCN(C(=O)CC(NC(=O)C(F)(F)F)c2cccs2)CC1 (centres unmarked) | 10.6%
51 | COc1cc(COC(=O)Oc2ccc(CNC(C)=O)cc2OC)c([N+](=O)[O-])cc1OC | -20.6%
52 | Cc1cc([N+](=O)[O-])nn1Cc1noc(C(=O)NCc2ccc3c(c2)OCO3)n1 | -11.3%
53 | CC(C)C[C@H](N)c1cn([C@@H](Cc2cc3ccccc3[nH]2)C(=O)N2CCNCC2)nn1.Cl | 16.4%
54 | Cc1csc(=O)n1CCC(=O)OCC(=O)c1ccc(Br)cc1 | -18.4%
55 | COc1ccc(C(C)NC(=O)CCc2ccccc2)cc1 (centres unmarked) | 10%
56 | Cc1[nH]n(-c2ccccc2)c(=O)c1/C=N/c1nn[nH]n1 | 11%
57 | COc1cccc(C(NC(C)=O)c2ccc3cccnc3c2O)c1 (centres unmarked) | 6.66%
58 | Cc1nc(NS(=O)(=O)c2ccccc2)sc1C(=O)NN | 14.3%
59 | C/C(=N/NC(=O)C1CC1(c1ccccc1)c1ccccc1)c1ccco1 (centres unmarked) | 5.78%
60 | Cc1cccc(NC(=O)CNC(=O)c2ccc(-n3cncn3)c([N+](=O)[O-])c2)c1C | -9.18%
61 | CCC(=O)Nc1nnc(-c2ccc(Cl)s2)o1 | 7.77%
62 | CC(=O)c1c(C)[nH]c(C(=O)CN2CCN(S(=O)(=O)c3ccccc3)CC2)c1C | 6.67%
63 | Cc1ccc(C(=O)N(CN2CCCC2=O)c2ccccc2)cc1C | -2.65%
64 | COc1ccc2cc(CCC(C)=O)ccc2c1 | 7.65%
65 | S=c1nc(-c2sccc2OCc2ccc(Cl)cc2Cl)[nH][nH]1 | 13.1%
66 | NC(=O)C1CCN(C(=O)Cc2ccc([N+](=O)[O-])cc2)CC1 | -1.06%

Row | SMILES | hERG current change (%, negative = inhibition) at 10uM
67 | O=C1NC(=O)N(c2ccccc2F)C(=O)/C1=C/c1cn(CC(=O)N2CCOCC2)c2ccccc12 | 16.1%
68 | Cc1ccccc1NS(=O)(=O)c1ccc(C(=O)N2CCCCCCC2)cc1 | -28.3%
69 | O=C(NCc1ccccc1C(F)(F)F)C12CN(Cc3ccccc3)CC1C(c1ccc([N+](=O)[O-])cc1)=NO2 (centres unmarked) | -3.04%
70 | Cc1ccc(Cn2c(CCNc3nc(-c4ccc(C)cc4)cs3)nc3cc(C(=O)NCCCO)ccc32)cc1 | -7.18%
71 | COCCCNC(=O)CCc1nc(-c2ccccc2)no1 | 9.36%
72 | CCCCCc1nc2ccccc2c(=O)n1N | -4.28%
73 | O=S1(=O)[C@H]2C[C@@H]3C=C[C@@]2(CN1Cc1cccc(F)c1)O3 | 2.94%
74 | Cc1nc2ccc(S(=O)(=O)NC(C(=O)NCc3cccs3)C(C)C)cc2s1 (centres unmarked) | 11.7%
75 | CC1CN(C)C(c2ccccc2)C(C)C12NC(=O)NC2=O (centres unmarked) | 12.8%
76 | CCOC(=O)c1c(C)n(C)c2ccc(O)c(CN3CCCCC3)c12 | -55.5%
77 | COc1ccc(Nc2nccc(-c3ccc([N+](=O)[O-])cc3)n2)cc1 | 16.4%
78 | CC1CC1C(=O)OCC(=O)Nc1cccc([N+](=O)[O-])c1 (centres unmarked) | -1.09%
79 | Cc1ccc2oc(C(=O)N3CCC(O)(c4cccc(C(F)(F)F)c4)CC3)c(C)c2c1 | 9.54%
80 | Cc1ccc(S(=O)(=O)Nc2ccc(C(=O)NCc3ccncc3)cc2)cc1 | 5.68%
81 | O=C(c1ccco1)N1CCN(C(=O)c2cc(-c3ccccn3)nc3ccccc23)CC1 | -34.8%
82 | NC(=O)CC(NC(=O)c1cccc(Br)c1)c1ccc(N2CCC(N3CCCC3)CC2)c([N+](=O)[O-])c1 (centres unmarked) | -2.58%
83 | Cn1c(C(=O)O)ccc1S(=O)(=O)N(Cc1ccccc1)Cc1ccccc1 | 16.5%
84 | Cc1noc(C)c1CSc1nc2ccccc2nc1NS(=O)(=O)c1ccc(Cl)cc1 | 8.69%
85 | COc1ccc(C(=O)CSc2nnc3n2CCCN3C(=O)Nc2ccccc2)cc1 | -24.8%
86 | N#CCC(=O)N/N=C/c1ccc(OCC(=O)Nc2ccc(F)cc2)cc1 | 2.36%
